Experimental data: the supplement of paper PMC11417369
Some of the results follow.

These sequences were tested on PfSIP2 AP2 domain 1 (GST-tagged) (assay: gcPBM binding intensity (ln(normalized median fluorescence intensity)); higher = stronger DNA binding).
Outline: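 An Agilent 4 × 180k array carrying primer-extended double-stranded 36-bp intergenic genomic probes and negative controls received GST-tagged P. falciparum DNA-binding domains expressed in E. coli, about 25 μg on average, for 1 h. The binding buffer contained 1× PBS, 1% milk, 0.2 mg/ml BSA, 0.5% salmon testes DNA and 0.03% Triton X-100. Binding intensity is the top Masliner-normalised natural-log median intensity across replicate spots of either probe orientation, read after Alexa488 anti-GST antibody staining and a 488 nm scan.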

In order of falling “gcPBM binding intensity (ln)” value:
1. TAATTGAGCAAATGAGTGCACAGCATAAAGTATAGT [GTGCAC_site9497]  10.2
2. TATACTCATAAATACACACACATATATATATATATA [CACACA_site5822]  9.67
3. ATGAGTAACATATTTGTGCACATATGGTTATTTTTA [GTGCAC_site9541]  9.14
4. GGGGACGCGGGTGGGGGTACTCACACTATGCAAAAT [XGTACX_site7745]  8.85
5. ATATATATATGTATGTATATATATATATATGTTTGA [GTGCAC_negctrl_site561]  8.69
6. GGGGGCTTTTATAAAAGTACAAAATGAATAAAAATT [XGTACX_site2393]  8.5
7. GTACTTGTATTATGCACACATATAATTAAACATATA [CACACA_site3312]  7.95
8. TTTTTAAAAATATACACACACAGATATTATATATAT [CACACA_site786]  7.65
9. AAATTTAAAATAAGTAGTACATAATATAAATAAATA [XGTACX_site3592]  7.48
10. TGAGATAACAAAAGTTGTACTTTTTTTTTTTTTTTT [XGTACX_site3004]  7.47
11. CTTATATTAAAACACACACACGCACAAAACAGAAAT [CACACA_site1462]  7.43
12. GCGTAATCTATTTGCACACTTATTTGTTCTTAAAAA [CACACA_site672]  7.41
13. AAAATATAATATAATGCACACATAAAAAAAAAATCA [CACACA_site7922]  7.32
14. TATACATACCCACCCACACACAAAAAAAAAAAAAAA [CACACA_site4632]  7.3
15. ATATATGTTCCTTTTACACACATAATCTTTTTTTTA [CACACA_site2661]  7.29
16. TATGTGTATACAATATGTACATATGTTAACTTGTAT [XGTACX_site872]  7.26
17. TAATATTATATTATATGTACATAACAAATTATATTT [XGTACX_site4296]  7.24
18. GCATATGTTCAGCGTTGTACATAAAAAAAAACATAT [XGTACX_site5974]  7.23
19. TTTTATAAATACACACGTACGTGTGCATAACGTTTT [XGTACX_site3199]  7.21
20. AAAATATAATATAATGCACACATAAAAAAAAAAAAA [CACACA_site7989]  7.19
21. ATATTGTGTTATAAATGTACACAATTTCCTTTCATA [XGTACX_site7481]  7.13
22. TAAGCCTTTCTATTATGTACTTATTAAAACATGTAG [XGTACX_site8022]  7.12
23. TTTTGAAAGTTTTTGTGTCCACATATATTTATATAT [XGTACX_site6563]  7.12
24. TACTTTTTAAAAATGTTTTATATAATAAAAAGATAT [CACACA_negctrl_site678]  7.06
25. GTTTAAAGTTGAACAAGTACACATTTATATAAGGCA [XGTACX_site351]  7.04
26. TTCATATAGAATTGTACACACAAAAACGACATTGTG [CACACA_site7061]  7.02
27. AAAAAAAATTCCAGTACACACAATAATACTAAAAAT [CACACA_site2801]  6.99
28. ATGAAAAAATTTAAATGTACATTACATATATTTATT [XGTACX_site2524]  6.98
29. TAAAAATATAAAACATGTACATATATGCATATATTT [XGTACX_site8093]  6.96
30. AAAAAATAATATTGTACACACATAAATTCTTTGTCA [CACACA_site5187]  6.96
31. GTATCAATAAAAAACAGTACATATATAATATATTTA [XGTACX_site1083]  6.93
32. AAATTTATTTCTGTGTGTCCACAAAAAAAAATCTTT [XGTACX_site691]  6.91
33. AAAAATTACAAAAATGCATGTACTATTCATATTTTT [TGCATGCA_site918]  6.9
34. AAAAAAAATAATATTGTACACACATAAATTCTTTGT [CACACA_site8654]  6.89
35. TTTTTTTTTTTCAATAGTACTTTCCATTTACATATA [XGTACX_site3889]  6.89
36. AAATATATATAAAACTCACACATTATCTTATAACCA [CACACA_site5268]  6.88
37. ATATCATAAGTAGAAACACACAATTAGATTTTTTCC [CACACA_site2353]  6.84
38. TTAAATAAATATAAGTGTACATACACACTTTACAAT [XGTACX_site6348]  6.8
39. TATAAAAGAAACTATACACACATATTTTAAATATTT [CACACA_site2753]  6.76
40. TTTAATAAAAAAATTAAAAATAAAGAAAAAAAAAAA [CACACA_negctrl_site1464]  6.76
41. TTTATTTATTACTAAAGTACTAAATCATATAATTAT [XGTACX_site3654]  6.76
42. AAAAAAAAGGAAATAACACACATGTATATATCTATA [CACACA_site6856]  6.73
43. ATTATAAACCAGAATGCATGTAGATGAATCTTTTCT [TGCATGCA_site284]  6.72
44. ATGTATGGAAATTTTACACACAAGAGTAGTTTAAAA [CACACA_site1710]  6.68
